Measurements: PubChem BioAssay AID743279 (National Center for Advancing Translational Sciences (NCATS), 2014)
In all, about 360,000 compounds went through this assay and about 17,000 (4.7%) were called active. The inconclusive results got no clear call from the source; some entries with a clear call stand among them for comparison. Cut-off read from the data, not from the text of the source: active = activity change below about -50%; inconclusive = mostly about -30% to -49%; inactive = weaker than that.

assay: qHTS for Inhibitors of Inflammasome Signaling: IL-1-beta AlphaLISA Primary Screen; settings: THP-1 LPS/ATP IL-1B secretion, 16 h; at 57.5 µM, stronger effect = lower value
Method in brief: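 THP-1 cells pretreated 1 hr with compounds (up to 57.5 uM final), then stimulated with LPS (250 ng/mL final) plus ATP (1.25 mM final); secreted IL-1B measured by AlphaLISA after 16 hr, decreased signal indicating inhibition.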
% is set by controls: 0 for no effect and ±100 for the full control effect.

Row | SMILES | activity change
1 | Cc1ccccc1N(CC(=O)N1CCc2ccccc2C1)S(C)(=O)=O | inactive: 3.23%
2 | CC(=O)CCS(=O)(=O)c1ccc(Oc2ccc(S(=O)(=O)CCC(C)=O)cc2)cc1 | active: -74.9%
3 | C=CC[C@@H](CC(=O)N(CCO)Cc1ccccc1)C(=O)NC[C@@H](OC(=O)[C@@H](CC=C)CC(=O)OC(C)(C)C)c1ccccc1 | inconclusive: -38%
4 | CC(CCN1C(N(C)C)=NC[C@@H]1C)c1ccccc1 (some centres undefined) | inactive: -1.89%
5 | O=C(OCC(=O)N1CCOCC1)c1cc(S(=O)(=O)N2CCOCC2)c(Cl)cc1Cl | active: -84.4%
6 | Cc1ccc(S(=O)(=O)N2C[C@@H]3[C@H]4CC[C@H](C4)[C@@H]3[C@@H](C)[C@H]2c2ccn(Cc3ccccc3)c2)cc1 | inconclusive: -43.5%
7 | CC1CCCN(C(=O)C(C)Sc2nc(-c3ccccc3)cc(C(F)(F)F)n2)C1 (centres undefined) | inactive: -10.6%
8 | O=C(CCc1nnc2n(Cc3ccc(Cl)cc3)c(=O)c3ccccc3n12)NCCN1CCCC1 | active: -59.2%
9 | COc1cccc(CN(Cc2ccco2)C(c2ccc(F)cc2)c2nnnn2C(C)(C)C)c1 (centres undefined) | inconclusive: -31.7%
10 | COC(=O)c1ccc(Nc2ncnc3c2cnn3-c2cccc(C)c2)cc1 | inconclusive: -35%
11 | COc1ccc(N(CC(=O)NCc2ccc(C)cc2)S(=O)(=O)c2ccccc2[N+](=O)[O-])c(OC)c1 | inconclusive: -32.5%
12 | CCOC(=O)c1c(NC(=O)C2CCCCC2)sc2c1CCN(CC)C2 | inconclusive: -33.5%
13 | CCN(CC)c1ccc(/C=C/c2cccc[n+]2C)c(OC)c1 | active: -91.8%
14 | COC1=C(C)C(=O)C2=C(C1=O)C1C3CC4=C(C(=O)C(OC)=C(C)C4=O)C(CNC(=O)C(C)=O)N3C(C#N)C(C2)N1C (centres undefined) | active: -98.5%
15 | C=CCn1c(NCc2ccc(OC)cc2)nc2ccccc21 | inconclusive: -30.1%
16 | CCc1ccccc1NC(=O)CSc1ccsc1[N+](=O)[O-] | inconclusive: -38.6%
17 | O=C(c1ccccc1)c1ccccc1N1C(=O)C=CC1=O | active: -97.7%
18 | CC1(C)Cc2ccccc2-c2nnc(SCC(=O)N3CCN(c4ccccc4)CC3)n21 | inconclusive: -43.1%
19 | O=[N+]([O-])c1cnc(Nc2ccc(Cl)cn2)c([N+](=O)[O-])c1 | active: -55%
20 | COC(C(=O)NC1CCCCCCC1)c1ccccc1 (centres undefined) | inactive: 5.76%
21 | COc1ccc2ccc(=O)oc2c1CC(=O)C(C)C | inactive: -3.68%
22 | CCCc1c(C)c2ccc(OCC(C)=O)cc2oc1=O | inconclusive: -37.3%
23 | COC(=O)c1c(C)[nH]c(C(=O)/C=C/c2cccc(Cl)c2)c1C | active: -64.5%
24 | C[C@@H](NC(=O)c1ncn(C)c1C(=O)N[C@H](C)c1ccccc1)c1ccccc1 | inconclusive: -30.2%
25 | CCCCNC(=S)N1CCN(c2ccccc2Cl)CC1 | active: -57.9%
26 | FC(F)(F)c1nnc2c(Sc3ccccc3)nc3ccc(Cl)cc3n12 | active: -69.5%
27 | Cc1ccc(C)c(CN2CCN(c3ncccn3)CC2)c1 | inactive: -7.69%

Row | SMILES | activity change
28 | CCOC(=O)Cc1ccc(Nc2nc3cc(-c4ccccc4C)sc3c(=O)n2C)cc1 | inconclusive: -49.5%
29 | CC(=O)C1=CCC(c2ccc(C(C)C)cc2)N(S(=O)(=O)c2ccc(C)cc2)C1 (centres undefined) | inconclusive: -41.3%
30 | COCCCN1CN(Cc2ccccc2)CNC1=S | inactive: 20%
31 | CC(C)(C)c1nc2scc(-c3ccc(Cl)cc3)c2c(=O)o1 | inconclusive: -33.9%
32 | COc1ccc(NC(=O)CNC(=O)c2cccs2)cc1Cl | inconclusive: -43.4%
33 | COc1ccc2c(c1)OC[C@H]1[C@H]2N2C(=O)c3cc(Cl)ccc3NC(=O)[C@@]2(C)[C@H]1c1ccccc1 | inconclusive: -42.7%
34 | CSc1ccc(/C=C/C(=O)OCC(=O)N2CCCCCC2)cc1 | inconclusive: -46.1%
35 | Cc1cc(Br)c(NC(=O)CN2C(=O)NC3(CCOc4ccccc43)C2=O)c(Br)c1 (centres undefined) | inconclusive: -30.6%
36 | CNc1nnc(SCC(=O)c2c(N)n(C3CC3)c(=O)[nH]c2=O)s1 | inactive: -11.2%
37 | O=C(C=CC=Cc1ccccc1)c1ccc([N+](=O)[O-])cc1 | inactive: -25.7%
38 | CNc1nc(-c2c[nH]c3ccccc23)cs1 | inconclusive: -48.1%
39 | CCc1cc2ccccc2nc1SCC(=O)N1CCN(C(=O)c2ccco2)CC1 | inconclusive: -32.8%
40 | O=C(c1ccc(Cn2c(=S)[nH]c3ccccc3c2=O)cc1)N1CCN(c2ccccn2)CC1 | inconclusive: -34.2%
41 | Cc1c2cnn(CC(=O)NCCN3CCOCC3)c(=O)c2c(C)n1Cc1ccccc1 | inactive: 4.44%
42 | O=C(CN1CCN(c2cccc(Cl)c2)CC1)NC1CCCc2ccccc21 (centres undefined) | active: -73.3%
43 | CCCn1c2ccccc2c2nnc(SC(CC)C(=O)Nc3cc(C)on3)nc21 (centres undefined) | inconclusive: -45.6%
44 | O=C(Cc1ccccc1)N1CCN=C1SCc1ccc([N+](=O)[O-])cc1 | active: -54.6%
45 | CC(C)c1cc(C(N)=O)c(NC(=O)c2cccc(COc3ccc(Cl)cc3)c2)s1 | inconclusive: -43.8%
46 | O=C(NC1CCC(O)CC1)c1ccc(-c2ccc(Cl)cc2)o1 (centres undefined) | active: -62.4%
47 | CC(=O)Nc1ccc(C=Cc2ccc([N+](=O)[O-])cc2)cc1 | inactive: -18.6%
48 | Cc1cccc(/C=C2/S/C(=N/N=C3\CC4CCC3(C)C4(C)C)NC2=O)c1 (centres undefined) | inconclusive: -49.3%
49 | O=C(Nc1ccccc1)Nc1ccc(Br)cc1F | inconclusive: -34.4%
50 | CCOC(=O)c1c(NC(=O)CSc2nnc(-c3ccccc3C)n2C)sc(C(C)=O)c1C | inconclusive: -37.3%
51 | O=C(CCCN1CCC(O)(c2ccc(Br)cc2)CC1)c1ccc(F)cc1 | inconclusive: -39.7%
52 | Cc1nn(C2CCS(=O)(=O)C2)c2nc(C3CC3)cc(C(=O)Nc3cccc(C#N)c3)c12 (centres undefined) | inconclusive: -30.6%
53 | CC(C)NC(=O)CSc1nc(Cc2cccs2)nc2ccccc12 | inconclusive: -46.9%
54 | O=S(=O)(NCC(O)c1ccccc1)c1cc(Cl)sc1Cl (centres undefined) | inconclusive: -30.1%
